{"source": "PubChem BioAssay AID588342", "about": "(National Center for Advancing Translational Sciences (NCATS), 2011)", "note": "Hit rate of the full screen: of about 360,000 compounds, about 25,000 (6.9%) were called active. The shares of active, inactive and inconclusive entries below differ from those in the screen. The call rests on the fitted dose curve; in most records, active means well fitted inhibition curve with a large enough effect; inconclusive means small, poorly fitted or top-dose-only effect; inactive means flat fitted curve, though single readings scatter. Where the call is inconclusive, the potency comes from a doubtful curve fit. Potency means the concentration at half of the fitted maximal effect; tags describe the fitted curve by direction and shape.", "data": [{"target": "Luciferin 4-monooxygenase (Photinus pyralis) (UniProt P08659)", "sequence (P08659 whole entry, looked up)": "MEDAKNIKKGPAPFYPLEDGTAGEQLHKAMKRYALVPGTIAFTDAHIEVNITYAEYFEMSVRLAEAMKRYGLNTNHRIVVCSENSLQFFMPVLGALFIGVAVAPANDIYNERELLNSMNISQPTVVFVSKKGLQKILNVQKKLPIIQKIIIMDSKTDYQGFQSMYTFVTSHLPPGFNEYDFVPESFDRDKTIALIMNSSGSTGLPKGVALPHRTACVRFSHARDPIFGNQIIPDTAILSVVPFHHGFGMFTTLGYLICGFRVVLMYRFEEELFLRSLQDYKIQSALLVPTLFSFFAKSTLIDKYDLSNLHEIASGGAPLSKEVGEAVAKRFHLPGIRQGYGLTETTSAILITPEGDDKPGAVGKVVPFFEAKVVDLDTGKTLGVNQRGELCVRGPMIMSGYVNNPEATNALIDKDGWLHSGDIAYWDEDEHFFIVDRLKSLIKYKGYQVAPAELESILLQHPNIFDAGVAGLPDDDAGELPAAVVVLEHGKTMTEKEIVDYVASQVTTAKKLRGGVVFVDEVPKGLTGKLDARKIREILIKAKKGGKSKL", "assay": "qHTS profiling assay for firefly luciferase inhibitor/activator using purifed enzyme and Km concentrations of substrates (counterscreen for miR-21 project); further: nearly all actives have a fitted effect of over 55% in size;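 on activity change, negative = inhibition: plate controls were vehicle for no effect and reference inhibitor for full effect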", "conditions": "purified FLuc, luminescence inhibition; activity change, negative = inhibition: at 57.5 µM (top of the series)", "how_it_was_run": "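Purified P. pyralis luciferase, 10 nM final, with Km-level 10 uM D-luciferin and 10 uM ATP in 50 mM Tris acetate pH 7.5, 10 mM Mg acetate, 0.01% Tween-20, 0.05% BSA; 6-point qHTS titration about 60 µM downward; luminescence read.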", "values": [{"smiles": "COc1cccc(C(=O)Nc2sc3c(c2C(=O)O)CCCC3)c1", "Potency": "active: 21.3 µM"}, {"smiles": "O=C(COC(=O)c1ccccc1F)NC1CC1", "activity change, negative = inhibition": "inactive: -15%"}, {"smiles": "CC1(C)Cc2c(sc(NC(=O)c3ccccc3Cl)c2C(=O)O)CO1", "Potency": "inconclusive: 26.9 µM [inhibitor, single point]"}, {"smiles": "COc1ccc(SN=C2C(C)=CC(=O)C=C2C)cc1", "Potency": "inconclusive: 23.9 µM [inhibitor, partial curve]"}, {"smiles": "Nc1c(C(=O)NCc2ccco2)sc2nc(N3CCOCC3)c3c(c12)CCCC3", "Potency": "inconclusive: 37.9 µM [inhibitor, partial curve, poor fit]"}, {"smiles": "O=C(Nc1ccc(SC(F)F)cc1)C1=CC=CN2CCS(=O)(=O)N=C12", "Potency": "inconclusive: 16.9 µM [inhibitor, partial curve, poor fit]"}, {"smiles": "O=C(Nc1nc2cc3c(cc2s1)OCO3)c1ccco1", "Potency": "active: 0.239 µM"}, {"smiles": "O=C(CN1C=NS(=O)(=O)c2ccccc21)Nc1ccc(Br)cc1", "activity change, negative = inhibition": "inactive: 7.81%"}, {"smiles": "O=C(O)CSc1cc(NS(=O)(=O)c2cccc([N+](=O)[O-])c2)c2ccccc2c1O", "Potency": "inconclusive: 21.3 µM [inhibitor, single point]"}, {"smiles": "Cn1cc(CNCc2ccc(OC(F)(F)F)cc2)c(-c2ccc3c(c2)OCCO3)n1", "activity change, negative = inhibition": "inactive: 1.14%"}, {"smiles": "O=S(=O)(c1ccccc1)c1cccc(S(=O)(=O)N2CCCCC2)c1", "Potency": "inconclusive: 37.9 µM [inhibitor, single point]"}, {"smiles": "COc1ccccc1Nc1ncc2c(n1)CCN(CC(C)C)C2", "Potency": "active: 21.3 µM"}, {"smiles": "COc1ccc(NC(=O)c2c(NC(=O)c3cccc(C)c3)sc3c2CCC3)cc1", "Potency": "inconclusive: 9.53 µM [inhibitor, partial curve]"}, {"smiles": "Cc1nn(CC(=O)NNC(=O)c2cccc(Br)c2)c(C)c1[N+](=O)[O-]", "activity change, negative = inhibition": "inactive: 6.36%"}, {"smiles": "COCCn1c(=O)[nH]c2cc(C(=O)NCCN3CCN(c4ccc(OC)cc4)CC3)ccc2c1=O", "activity change, negative = inhibition": "inactive: -6.67%"}, {"smiles": "O=C1N/C(=N/O)S/C1=C\\c1ccccc1-n1cccn1", "Potency": "inconclusive: 23.9 µM [inhibitor, partial curve, poor fit]"}, {"smiles": "Nc1ccccc1C(=O)Nc1ccc(Cl)cc1Cl", "Potency": "active: 10.7 µM"}, {"smiles": "NC(=S)N/N=C/c1ccc2c(c1)OCCO2", "Potency": "inconclusive: 16.9 µM [inhibitor, partial curve]"}, {"smiles": "CC(C)(C)c1cc(C(=O)Nc2ccccc2)ccn1", "Potency": "inconclusive: 21.3 µM [inhibitor, partial curve, poor fit]"}, {"smiles": "O=C(NCCC(=O)N1CCN(c2ccc(F)cc2)CC1)c1ccco1", "activity change, negative = inhibition": "inactive: -0.89%"}, {"smiles": "N#Cc1cc(-c2ccccc2)[nH]c1-c1nccc2ccccc12", "Potency": "inconclusive: 37.9 µM [inhibitor, partial curve, poor fit]"}, {"smiles": "COCCn1c(SCC(=O)Nc2cccnc2Cl)nc2ccccc2c1=O", "activity change, negative = inhibition": "inactive: 1.66%"}, {"smiles": "CC(C)CC(=O)Nc1nc2ccc(S(C)(=O)=O)cc2s1", "Potency": "inconclusive: 37.9 µM [inhibitor, partial curve, poor fit]"}, {"smiles": "Cc1ccc2c(C)c(C(=O)N3CCCC(C(N)=O)C3)oc2c1C", "note": "(stereo not drawn)", "Potency": "inconclusive: 19 µM [inhibitor, partial curve, poor fit]"}, {"smiles": "C/C(O)=c1/cnc2nc3ccccc3n2c1=O", "Potency": "inconclusive: 37.9 µM [inhibitor, single point]"}, {"smiles": "NC(=O)NC(=O)CN1c2cccc3cccc(c23)S1(=O)=O", "activity change, negative = inhibition": "inactive: 1.46%"}, {"smiles": "N#Cc1nc(-c2ccc(OCc3ccccc3)cc2)oc1NCc1cccnc1", "Potency": "inconclusive: 16.9 µM [inhibitor, partial curve]"}, {"smiles": "Cc1c(C(=O)N2CCN(C(=O)c3ccccc3)CC2)oc2ccc(F)cc12", "activity change, negative = inhibition": "inactive: 4.82%"}, {"smiles": "Cc1cccc(-n2ncc3c(N4CCc5ccccc54)ncnc32)c1", "Potency": "active: 0.536 µM"}, {"smiles": "Cc1ccc(S(=O)(=O)NCCc2nnc3ccc(SCc4cccc(F)c4)nn23)cc1", "activity change, negative = inhibition": "inactive: 5.03%"}, {"smiles": "COc1cccc(Nc2nc(-c3cccs3)nc3ccccc23)c1", "Potency": "inconclusive: 23.9 µM [inhibitor, single point]"}, {"smiles": "COc1ccc(/C=C/c2noc(-c3ccccc3OC(C)=O)n2)cc1", "Potency": "active: 15.1 µM"}, {"smiles": "O=C(O)c1ccc(-n2nnc3ccccc32)c([N+](=O)[O-])c1", "Potency": "inconclusive: 26.9 µM [inhibitor, partial curve, poor fit]"}, {"smiles": "O=[N+]([O-])c1cc(/C=N/N2CCN(c3ccccc3)CC2)ccc1Cl", "Potency": "inconclusive: 21.3 µM [inhibitor, partial curve, poor fit]"}, {"smiles": "CC(NC(=O)c1cccc(Nc2nc3ccccc3n3nnnc23)c1)c1ccccc1", "note": "(stereo not drawn)", "activity change, negative = inhibition": "inactive: -0.893%"}, {"smiles": "Cc1ccccc1OCC(=O)Nc1cccc(NC(=O)c2ccco2)c1", "Potency": "active: 10.7 µM"}, {"smiles": "COc1ccc(OC)c(NC(=O)Nc2cccc(OCc3cc(=O)n4cc(C)ccc4n3)c2)c1", "Potency": "active: 1.2 µM"}, {"smiles": "C/C(=N\\NC(=O)OC(C)(C)C)c1cccc([N+](=O)[O-])c1", "Potency": "inconclusive: 26.9 µM [inhibitor, single point]"}, {"smiles": "COc1ccc(C2c3ccsc3CCN2C(C)=O)cc1", "note": "(stereo not drawn)", "Potency": "inconclusive: 23.9 µM [inhibitor, partial curve, poor fit]"}, {"smiles": "CCN(CC)S(=O)(=O)c1nnc(NC(=O)COc2ccccc2)s1", "Potency": "inconclusive: 37.9 µM [inhibitor, partial curve, poor fit]"}, {"smiles": "CCc1ccc(C(=O)COC(=O)C(CCSC)NC(=O)c2ccccc2)cc1", "note": "(stereo not drawn)", "Potency": "inconclusive: 9.53 µM [inhibitor, partial curve, poor fit]"}, {"smiles": "COc1ccc(C2(CNC(=O)C(=O)Nc3ccc(C)c(Cl)c3)CCCC2)cc1OC", "activity change, negative = inhibition": "inactive: -5.28%"}, {"smiles": "Cc1ccc(N2CS(=O)(=O)/C(=C/N(C)C)C2=O)cc1", "Potency": "active: 12 µM"}, {"smiles": "Cc1ccc(CNc2nc(Cl)c(C#N)s2)cc1", "Potency": "inconclusive: 21.3 µM [inhibitor, single point]"}, {"smiles": "Clc1cccc(-n2ncc3c(NCCC4=CCCCC4)ncnc32)c1", "Potency": "inconclusive: 19 µM [inhibitor, partial curve]"}, {"smiles": "O=C(NCc1cccnc1)C(C(=O)c1ccc(F)cc1)n1ccccc1=O", "note": "(stereo not drawn)", "activity change, negative = inhibition": "inactive: -1.82%"}, {"smiles": "COc1cccc(OC)c1OCCCOc1cccc2cccnc12", "Potency": "active: 16.9 µM"}, {"smiles": "CC(=O)c1cc(C#N)c(SCc2ccc(F)cc2)nc1C", "activity change, negative = inhibition": "inactive: -3.15%"}]}]}
